# Laboratory results: PubChem BioAssay (NCATS)
# Several values for one entry are separate records, joined by “and”; a condition that tells them apart may be missing. Equal values may be shown once. The shares of active, inactive and inconclusive entries below differ from those in the screen. For some assays here: Potencies beside an inconclusive call are fits to weak or partial responses and may not hold up. For some assays here: “Side channel” marks fits to a control or component signal instead of the main read-out. Activity calls are given as the source filed them. Unless noted, calls follow the shape of the full dose curve.
# Assays:
# [1] = NFAT Signaling Pathway (AID 444; active = well fitted curve in either direction with a large enough effect, not every such curve was filed as active; inconclusive = small, poorly fitted or top-dose-only effect, or another doubt;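 also: carbachol stimulus at about its EC50 of 1 µM final; % is scaled to controls: 0 for no effect and ±100 for the full control effect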); conditions: Jurkat NFAT-bla M1, carbachol, beta-lactamase ratio, 5 h
# In short: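 Read-out: CCF4 FRET ratio (460 nm/530 nm) after 1 h RT dye loading, used for %activity and AC50 from titration series. Cells: Jurkat NFAT-β-lactamase/M1 line, treated with compound plus 1 uM carbachol for 5 h, 37 °C.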
# [2] = target: 3',5'-cyclic-AMP phosphodiesterase 4B (Homo sapiens) (UniProt Q07343); test: qHTS Assay for Inhibitors of PDE-IV (AID 607; active = well fitted activation curve with a large enough effect in the main read-out, with a control signal flat, not every such curve was filed as active; inconclusive = small, poorly fitted or top-dose-only effect, or effect the other way, or a change in a side signal; also: % of control where 0% means no effect); conditions: HEK293 ACTOne CNG channel cells, membrane potential fluorescence; activation (PDE inhibition): at 22.9 µM (top of the series)
# UniProt Q07343, sequence (Q07343 whole entry, looked up): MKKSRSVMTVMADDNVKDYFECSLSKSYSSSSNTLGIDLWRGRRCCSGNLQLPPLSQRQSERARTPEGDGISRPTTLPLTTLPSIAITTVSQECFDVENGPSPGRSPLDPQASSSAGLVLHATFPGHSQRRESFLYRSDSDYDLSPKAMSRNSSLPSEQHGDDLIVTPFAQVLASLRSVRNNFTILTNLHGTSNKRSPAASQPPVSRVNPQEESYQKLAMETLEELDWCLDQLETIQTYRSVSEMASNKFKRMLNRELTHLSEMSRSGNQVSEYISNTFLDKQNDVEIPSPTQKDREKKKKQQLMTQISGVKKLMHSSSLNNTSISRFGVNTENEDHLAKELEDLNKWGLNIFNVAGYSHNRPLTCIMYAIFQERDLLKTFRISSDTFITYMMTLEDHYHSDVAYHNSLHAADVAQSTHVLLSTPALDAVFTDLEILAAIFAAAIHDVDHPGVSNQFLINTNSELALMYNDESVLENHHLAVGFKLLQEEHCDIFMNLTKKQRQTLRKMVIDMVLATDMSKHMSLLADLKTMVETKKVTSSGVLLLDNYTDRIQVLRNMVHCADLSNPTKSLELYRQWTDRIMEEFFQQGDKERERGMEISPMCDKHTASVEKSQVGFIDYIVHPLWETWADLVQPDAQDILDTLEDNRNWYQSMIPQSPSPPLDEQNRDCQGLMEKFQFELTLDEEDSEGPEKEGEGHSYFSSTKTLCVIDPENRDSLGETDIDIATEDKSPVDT
# In short: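 Live HEK293 cells with a modified cyclic nucleotide-gated (CNG) channel report intracellular cAMP via membrane-potential dye fluorescence (ex 535/em 590 nm). Endogenous PDE-IV was targeted. Compounds were tested at up to 22.9 uM final; RO 20-1724 100 uM served as control.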
# [3] = qHTS Assay for Identification of Small Molecule Antagonists for Thrombopoietin (TPO) Signaling Pathway (AID 918; active = well fitted curve in the direction sought with a large enough effect; inconclusive = small, poorly fitted or top-dose-only effect, or another doubt; inactive = no such curve, though single readings can be large; an effect the other way counts as inactive or inconclusive; also: nearly all actives have a fitted effect of over 60% in size); conditions: TPO-dependent cell signaling reporter, antagonist mode; activity change, negative = inhibition: at 38.5 µM (top of the series)
# In short: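 First, Ba/F3 reporter cells expressing human TPO receptor were held overnight without IL-3. Next, compound and 26 pM TPO were added. After 24 hrs incubation at 37 C, luciferase luminescence under the Glycoprotein IIb promoter was recorded.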
# [4] = target: Muscarinic acetylcholine receptor M1 (Rattus norvegicus) (UniProt P08482); test: qHTS Assay for Antagonists of Acetylcholine Muscarinic M1 Receptor: Kinetic Measurement of Intracellular Calcium Response (AID 943; active = well fitted curve in the direction sought with a large enough effect; inconclusive = small, poorly fitted or top-dose-only effect, or another doubt; inactive = no such curve, though single readings can be large; an effect the other way counts as inactive or inconclusive;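 also: Fluo-4 calcium signal as peak divided by basal fluorescence over 4 min; nearly all actives have a fitted effect of over 75% in size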)
# UniProt P08482, sequence (P08482 whole entry, looked up): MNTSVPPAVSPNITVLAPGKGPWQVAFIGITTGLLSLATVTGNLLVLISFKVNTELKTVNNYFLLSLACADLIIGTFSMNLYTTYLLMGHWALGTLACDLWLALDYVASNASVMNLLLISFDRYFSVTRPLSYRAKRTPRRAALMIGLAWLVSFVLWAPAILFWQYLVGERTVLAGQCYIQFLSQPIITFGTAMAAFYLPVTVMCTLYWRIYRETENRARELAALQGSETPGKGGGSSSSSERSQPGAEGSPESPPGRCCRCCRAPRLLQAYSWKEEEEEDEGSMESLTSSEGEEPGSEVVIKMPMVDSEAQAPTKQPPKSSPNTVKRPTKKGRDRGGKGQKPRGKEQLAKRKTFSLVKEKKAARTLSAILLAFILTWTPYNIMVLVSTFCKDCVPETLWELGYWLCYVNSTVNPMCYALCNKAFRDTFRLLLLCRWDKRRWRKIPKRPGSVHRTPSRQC
# In short: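 Intracellular calcium flux, recorded with Fluo-4 in a kinetic plate reader, served as signal; the response to carbachol at EC80 (100 nM final) was taken as maximal over minimal fluorescence after a 10 min compound pre-incubation in rat M1-CHO cells.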
# [5] = target: Muscarinic acetylcholine receptor M1 (Rattus norvegicus) (UniProt P08482); test: qHTS Assay for Antagonists of Acetylcholine Muscarinic M1 Receptor: Measurement of IP-One Response (AID 944; active = well fitted curve in the direction sought with a large enough effect; inconclusive = small, poorly fitted or top-dose-only effect, or another doubt; inactive = no such curve, though single readings can be large; an effect the other way counts as inactive or inconclusive; also: nearly all actives have a fitted effect of over 75% in size)
# [6] = qHTS Assay for Lipid Storage Modulators (AID 1519); conditions: Drosophila S3 cells, BODIPY lipid droplet/cell ratio, laser cytometry, cells loaded with oleic acid; activity change, negative = inhibition: at 57.5 µM (top of the series) unless noted; also: potency is read from the fitted curve at half-maximal effect; as to activity change, negative = inhibition: % is scaled to controls: 0 for no effect and ±100 for the full control effect
# In short: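 Cells seeded at 5,000 per well were treated with compounds over a concentration series and loaded with oleic acid (400 uM, as added). Lipid droplet fluorescence (488 nm excitation, 500-530 nm channel) was read by laser-scanning cytometry and normalized to 20 uM Triacsin C.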
# [7] = target: RecQ-like DNA helicase BLM (Homo sapiens) (UniProt P54132); test: qHTS Validation Assay for Inhibitors of Bloom's syndrome helicase (BLM) (AID 2364; active = well fitted curve in the direction sought with a large enough effect; inconclusive = small, poorly fitted or top-dose-only effect, or another doubt; inactive = no such curve, though single readings can be large; an effect the other way counts as inactive or inconclusive; also: potency is read from the fitted curve at half-maximal effect)
# In short: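 Forked 20-bp duplex substrate (200 nM, TAMRA/BHQ-2) plus 2 mM ATP added after 15 min compound preincubation with 50 nM enzyme, pH 8.0, poly(dI-dC) 2.5 ug/ml. Strand separation followed by fluorescence (525/598 nm) over 2 h, normalized to enzyme-free and DMSO controls.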
# [8] = target: Estrogen receptor (Homo sapiens) (UniProt P03372); test: qHTS assay for small molecule agonists of estrogen receptor alpha signaling (AID 588514); conditions: ER-alpha-UAS-bla HEK293, beta-lactamase ratio, 18 h; activation: at 76.8 µM (top of the series), percent of full estradiol response, vehicle zero unless noted; also: potency is read from the fitted curve at half-maximal effect; nearly all actives have a fitted effect of over 70% in size
# UniProt P03372, sequence (P03372 whole entry, looked up): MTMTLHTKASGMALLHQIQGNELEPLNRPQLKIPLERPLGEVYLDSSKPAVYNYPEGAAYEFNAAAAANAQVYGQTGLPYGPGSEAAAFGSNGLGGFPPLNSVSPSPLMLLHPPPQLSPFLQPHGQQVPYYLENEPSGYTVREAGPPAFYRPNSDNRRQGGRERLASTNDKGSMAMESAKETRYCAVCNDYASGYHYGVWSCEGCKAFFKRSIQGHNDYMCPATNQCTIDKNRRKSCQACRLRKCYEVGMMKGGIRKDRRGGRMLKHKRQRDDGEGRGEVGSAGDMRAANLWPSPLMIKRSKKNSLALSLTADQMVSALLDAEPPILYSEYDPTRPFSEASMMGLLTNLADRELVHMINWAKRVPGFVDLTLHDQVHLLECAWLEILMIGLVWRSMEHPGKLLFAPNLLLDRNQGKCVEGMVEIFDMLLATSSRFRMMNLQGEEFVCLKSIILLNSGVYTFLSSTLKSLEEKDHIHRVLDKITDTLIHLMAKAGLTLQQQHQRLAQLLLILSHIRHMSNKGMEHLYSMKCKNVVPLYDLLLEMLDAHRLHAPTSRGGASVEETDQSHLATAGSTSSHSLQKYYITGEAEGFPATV
# In short: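 Reporter-gene assay. […] controls beta-lactamase in HEK 293 GripTite cells; after 18 hrs with compound, CCF4 substrate is added for 2 hrs and fluorescence is read.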
# [9] = target: Peroxisome proliferator-activated receptor delta (Homo sapiens) (UniProt Q03181); test: qHTS assay for small molecule agonists of peroxisome proliferator-activated receptor delta signaling (AID 588534); conditions: HEK293T PPARdelta-UAS-bla, beta-lactamase ratio, 18 h; activation: at 76.7 µM (top of the series); also: potency is read from the fitted curve at half-maximal effect;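 as to activation: 0% = DMSO basal wells and 100% = positive control agonist at 10 µM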
# UniProt Q03181, sequence (Q03181 whole entry, looked up): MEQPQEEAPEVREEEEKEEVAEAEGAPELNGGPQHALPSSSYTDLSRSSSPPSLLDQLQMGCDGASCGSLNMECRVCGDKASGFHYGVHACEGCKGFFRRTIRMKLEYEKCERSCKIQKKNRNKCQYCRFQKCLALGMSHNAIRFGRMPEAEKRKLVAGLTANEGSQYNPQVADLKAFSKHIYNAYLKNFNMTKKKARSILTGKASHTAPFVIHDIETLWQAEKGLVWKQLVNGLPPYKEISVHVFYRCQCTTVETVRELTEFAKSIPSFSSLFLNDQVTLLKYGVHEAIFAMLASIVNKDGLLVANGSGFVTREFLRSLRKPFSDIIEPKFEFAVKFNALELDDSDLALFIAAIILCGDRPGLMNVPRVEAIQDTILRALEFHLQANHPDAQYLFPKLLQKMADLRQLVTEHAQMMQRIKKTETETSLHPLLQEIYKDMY
# In short: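 Reporter cells were plated and held 5 hrs at 37 C before compounds were added. After 18 hrs at 37 C, CCF4 dye was loaded for 2 hrs at RT and fluorescence measured.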
# [10] = target: Retinoic acid receptor RXR-alpha (Homo sapiens) (UniProt P19793); test: qHTS assay for small molecule agonists of retinoid X receptor alpha signaling (AID 588544); conditions: HEK293T RXRa-UAS-bla, beta-lactamase reporter, 18 h; activation: at 76.7 µM (top of the series); also: potency is read from the fitted curve at half-maximal effect
# UniProt P19793, sequence (P19793 whole entry, looked up): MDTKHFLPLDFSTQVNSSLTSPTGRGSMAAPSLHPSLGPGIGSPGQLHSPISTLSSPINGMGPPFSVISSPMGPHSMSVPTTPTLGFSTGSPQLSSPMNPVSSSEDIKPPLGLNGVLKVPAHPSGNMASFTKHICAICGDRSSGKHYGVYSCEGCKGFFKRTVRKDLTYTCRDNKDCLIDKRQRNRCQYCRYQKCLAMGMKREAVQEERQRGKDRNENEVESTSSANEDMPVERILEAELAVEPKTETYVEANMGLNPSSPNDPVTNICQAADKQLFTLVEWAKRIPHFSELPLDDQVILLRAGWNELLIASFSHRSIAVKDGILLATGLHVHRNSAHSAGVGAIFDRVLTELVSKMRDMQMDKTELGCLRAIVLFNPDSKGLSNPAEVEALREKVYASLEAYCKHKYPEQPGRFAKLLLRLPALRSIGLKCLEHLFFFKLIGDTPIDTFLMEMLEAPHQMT
# [11] = qHTS assay to identify small molecules that stimulate interleukin-8 (IL-8) secretion (AID 651758; active = well fitted activation curve with a large enough effect in the signal ratio; inconclusive = small, poorly fitted or top-dose-only effect, or effect the other way, or a change in a side signal; the % refers to the signal ratio; also: potency is read from the fitted curve at half-maximal effect); conditions: HTRF ratio (665/615); activation: at 92.2 µM (top of the series)
# In short: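 Secreted IL-8 measured by TR-FRET sandwich (cryptate and XL665 antibodies) from THP-1 cells exposed to compound overnight (16 hrs, 37 C).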
# [12] = AP1 Signaling Pathway (AID 357; active = well fitted curve in either direction with a large enough effect, not every such curve was filed as active; inconclusive = small, poorly fitted or top-dose-only effect, or another doubt;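 also: ME-180 reporter cells stimulated with EGF at its EC50 level; top concentration of the series differs between compounds; % is scaled to controls: 0 for no effect and ±100 for the full control effect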); conditions: ME-180 AP-1-bla reporter, EGF-induced, beta-lactamase ratio, 5 h; at 17.2 µM (top of the series) unless noted
# In short: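 Beta-lactamase reporter under AP-1 response element, ME-180 background. Stimulus: EC50 EGF. Compound exposure 5 h, 37 °C. Detection: CCF4, 2.5 h RT, 460/530 nm. Values: AC50 from titration.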
# [13] = Stat Signaling Pathway (AID 446; active = well fitted curve in either direction with a large enough effect, not every such curve was filed as active; inconclusive = small, poorly fitted or top-dose-only effect, or another doubt;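 also: ME-180 cervical cancer cells given 40 pM IL-6 alongside compound; SIE-controlled beta-lactamase reporter measured as 460/530 nm FRET emission ratio; top concentration of the series differs between compounds; % is scaled to controls: 0 for no effect and ±100 for the full control effect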); conditions: ME-180 SIE beta-lactamase reporter, IL-6 stimulated, 5 h; at 38 µM (top of the series) unless noted
# In short: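 IL-6/STAT signaling read in ME-180 cells via an SIE beta-lactamase reporter. Stimulus was 40 pM IL-6 (its AC50) for 5 hrs, so both activation and inhibition register.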
# [14] = target: Glucocorticoid receptor (Homo sapiens) (UniProt P04150); test: GR-EFC Redistribution (AID 451); conditions: CHO-K1 GR-EFC translocation, beta-gal luminescence, 2 h; also: potency is read from the fitted curve at half-maximal effect
# UniProt P04150, sequence (P04150 whole entry, looked up, the tested form may be a part): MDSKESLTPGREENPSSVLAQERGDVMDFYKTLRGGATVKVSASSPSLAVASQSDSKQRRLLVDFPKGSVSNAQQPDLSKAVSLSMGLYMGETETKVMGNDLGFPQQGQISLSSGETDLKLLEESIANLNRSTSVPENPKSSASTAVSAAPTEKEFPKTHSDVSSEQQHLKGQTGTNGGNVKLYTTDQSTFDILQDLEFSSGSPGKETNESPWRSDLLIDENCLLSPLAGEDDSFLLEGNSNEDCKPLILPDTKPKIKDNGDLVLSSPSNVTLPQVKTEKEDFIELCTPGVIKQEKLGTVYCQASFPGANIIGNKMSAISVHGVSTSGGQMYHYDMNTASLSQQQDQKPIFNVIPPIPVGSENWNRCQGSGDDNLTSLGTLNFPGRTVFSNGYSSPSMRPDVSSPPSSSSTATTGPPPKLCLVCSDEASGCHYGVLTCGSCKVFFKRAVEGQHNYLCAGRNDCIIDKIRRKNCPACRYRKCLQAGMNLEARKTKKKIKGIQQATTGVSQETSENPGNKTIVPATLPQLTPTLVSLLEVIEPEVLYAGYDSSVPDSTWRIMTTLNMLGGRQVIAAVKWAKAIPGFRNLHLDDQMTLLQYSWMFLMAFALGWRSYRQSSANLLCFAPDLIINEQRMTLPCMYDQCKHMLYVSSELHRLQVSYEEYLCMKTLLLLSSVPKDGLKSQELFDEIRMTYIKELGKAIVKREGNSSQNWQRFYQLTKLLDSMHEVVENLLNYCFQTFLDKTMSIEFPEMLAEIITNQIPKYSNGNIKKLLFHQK
# In short: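 Translocation of GR-ED fusion to nuclear EA restores b-gal, read by luminescence after 1 h room-temperature detection. Engineered CHO-K1 biosensor cells, 1,000/well, exposed 2 h at 37 C to titrations up to 46 uM final.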
# [15] = qHTS Assay for Identification of Small Molecule Agonists for Hypoxia Response Element Signaling Pathway (AID 914; active = well fitted activation curve with a large enough effect in the signal ratio, with a control signal flat, not every such curve was filed as active; inconclusive = small, poorly fitted or top-dose-only effect, or effect the other way, or a change in a side signal; the % refers to the signal ratio; also: potency is read from the fitted curve at half-maximal effect); conditions: ME-180 (cervical carcinoma) HRE-bla reporter, beta-lactamase ratio, CoCl2, 17 h; activation: active compounds read high
# In short: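 Reporter activity (beta-lactamase, CCF4 460nm/530nm ratio) in HRE-bla ME-180 cells is recorded after 17 h compound exposure with EC50 CoCl2 at 37 degrees Celsius. AC50 values come from titration data.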
# [16] = qHTS for differential inhibitors of proliferation of Plasmodium falciparum line 7G8 (AID 1815; active = well fitted curve in the direction sought with a large enough effect; inconclusive = small, poorly fitted or top-dose-only effect, or another doubt; inactive = no such curve, though single readings can be large; an effect the other way counts as inactive or inconclusive;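 also: potency is read from the fitted curve at half-maximal effect; parasite growth measured after three days of incubation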)
# [17] = qHTS for differential inhibitors of proliferation of Plasmodium falciparum line D10 (AID 1877; active = well fitted curve in the direction sought with a large enough effect; inconclusive = small, poorly fitted or top-dose-only effect, or another doubt; inactive = no such curve, though single readings can be large; an effect the other way counts as inactive or inconclusive;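 also: potency is read from the fitted curve at half-maximal effect; parasites grown with compound for 72 h before DNA staining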)
# [18] = Validation screen for small molecules that induce DNA re-replication in MCF 10A normal breast cells (AID 463097; active = well fitted curve in the direction sought with a large enough effect; inconclusive = small, poorly fitted or top-dose-only effect, or another doubt; inactive = no such curve, though single readings can be large; an effect the other way counts as inactive or inconclusive; also: 0% is about no effect; nearly all actives have a fitted effect of over 60% in size)
# In short: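 DNA re-replication was detected as a rise in nuclei with elevated Hoechst fluorescence after a 48 hr compound exposure of MCF 10A cells at 37 C.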
# [19] = target: Cytochrome P450 1A2 (Homo sapiens) (UniProt P05177); test: p450-cyp1a2 (AID 410); also: potency is read from the fitted curve at half-maximal effect
# UniProt P05177, sequence (P05177 whole entry, looked up): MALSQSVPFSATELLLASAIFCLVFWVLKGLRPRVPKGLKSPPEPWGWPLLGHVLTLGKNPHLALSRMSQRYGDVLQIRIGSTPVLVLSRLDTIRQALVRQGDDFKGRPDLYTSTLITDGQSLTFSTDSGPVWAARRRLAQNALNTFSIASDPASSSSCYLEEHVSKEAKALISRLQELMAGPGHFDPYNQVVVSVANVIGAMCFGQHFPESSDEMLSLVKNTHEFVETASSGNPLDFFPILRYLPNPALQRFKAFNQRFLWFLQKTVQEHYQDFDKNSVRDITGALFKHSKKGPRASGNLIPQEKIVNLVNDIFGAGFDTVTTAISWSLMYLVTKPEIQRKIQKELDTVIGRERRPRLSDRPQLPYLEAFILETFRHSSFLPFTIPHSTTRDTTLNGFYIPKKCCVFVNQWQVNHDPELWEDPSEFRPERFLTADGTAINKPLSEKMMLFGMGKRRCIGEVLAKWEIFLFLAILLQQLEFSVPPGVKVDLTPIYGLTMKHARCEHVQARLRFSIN
# In short: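 Inhibition was calculated relative to 57 uM furafylline (full inhibition). The reaction used human CYP1A2 at 20nM with Luciferin-ME at its Km, 100uM, driven by an NADPH-regenerating system for 60 min at room temperature.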
# [20] = target: Cytochrome P450 2C9 (Homo sapiens) (UniProt P11712); test: qHTS Assay for Inhibitors and Substrates of Cytochrome P450 2C9 (AID 883; active = well fitted curve in the direction sought with a large enough effect; inconclusive = small, poorly fitted or top-dose-only effect, or another doubt; inactive = no such curve, though single readings can be large; an effect the other way counts as inactive or inconclusive; also: % is scaled to controls: 0 for no effect and ±100 for the full control effect; nearly all actives have a fitted effect of over 60% in size)
# In short: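 Inhibition of CYP2C9 is scored as loss of luminescence, with 57uM sulphaphenazole defining 100% inhibition. Substrate Luciferin-H is used at 100uM, equal to its KM; enzyme at 10nM in 25mM KPO4, 60 min at 37C with NADPH regeneration.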
# [21] = target: Ubiquitin carboxyl-terminal hydrolase 1 (Homo sapiens) (UniProt O94782); test: Inhibitors of USP1/UAF1: Pilot qHTS (AID 504865; active = well fitted curve in the direction sought with a large enough effect; inconclusive = small, poorly fitted or top-dose-only effect, or another doubt; inactive = no such curve, though single readings can be large; an effect the other way counts as inactive or inconclusive;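 also: rhodamine fluorescence freed from ubiquitin-rhodamine substrate followed over time; potency is read from the fitted curve at half-maximal effect; nearly all actives have a fitted effect of over 35% in size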)
# UniProt O94782, sequence (O94782 whole entry, looked up): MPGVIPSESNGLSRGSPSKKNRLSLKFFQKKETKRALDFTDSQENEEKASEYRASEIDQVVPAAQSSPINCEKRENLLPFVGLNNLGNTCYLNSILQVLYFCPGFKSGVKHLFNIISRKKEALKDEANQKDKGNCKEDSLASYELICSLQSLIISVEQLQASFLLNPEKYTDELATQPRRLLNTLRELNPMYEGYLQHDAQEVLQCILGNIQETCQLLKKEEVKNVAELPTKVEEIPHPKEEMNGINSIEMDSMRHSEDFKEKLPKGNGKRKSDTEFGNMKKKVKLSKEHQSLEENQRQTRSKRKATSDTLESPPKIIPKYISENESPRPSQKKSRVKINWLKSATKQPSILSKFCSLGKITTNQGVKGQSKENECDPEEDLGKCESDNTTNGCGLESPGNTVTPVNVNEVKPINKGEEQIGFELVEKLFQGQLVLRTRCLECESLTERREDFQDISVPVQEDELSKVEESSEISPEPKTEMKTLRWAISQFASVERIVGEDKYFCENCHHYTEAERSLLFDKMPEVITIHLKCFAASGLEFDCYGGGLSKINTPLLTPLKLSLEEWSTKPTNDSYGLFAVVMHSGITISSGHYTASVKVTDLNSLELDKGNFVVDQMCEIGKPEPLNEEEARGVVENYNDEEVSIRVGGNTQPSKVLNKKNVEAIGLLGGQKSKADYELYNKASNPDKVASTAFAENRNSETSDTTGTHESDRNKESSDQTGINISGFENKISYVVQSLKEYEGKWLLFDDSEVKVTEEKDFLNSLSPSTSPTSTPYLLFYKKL
# In short: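 Kinetic fluorescence assay: 1nM USP1/UAF1, 15 min compound preincubation, then 150nM Ub-Rho; 480/540 nm.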
# [22] = at 7.69 µM (top of the series) unless noted
# Tags tell the direction and shape of the fitted curve or compound fluorescence and quenching.
smiles,measurement,setting,value
CCn1cc(C(=O)O)c(=O)c2ccc(C)nc21,"activity change, negative = inhibition",[1]; at 17.2 µM (top of the series),inactive: -8.77% and inactive: -6.5%
same,"activity change, negative = inhibition",[1]; at 38 µM (top of the series),inactive: 12.2%
same,activation (PDE inhibition),[2],inconclusive: 30.1%
same,"activity change, negative = inhibition",[3],inconclusive: -17.6% [phenotype inactive]
same,Potency,[4],inactive
same,Potency,[5],inactive
same,"activity change, negative = inhibition",[6],inconclusive: -0.445%
same,Potency,[7],"inconclusive: 0.0071 µM [inhibitor, full curve]"
same,Potency,[8],"inconclusive: 12.6 µM [side channel, rising, full curve, poor fit]"
same,Potency,[9],"inconclusive: 7.08 µM [side channel, rising, full curve]"
same,activation,[9],inconclusive: -14.6%
same,Potency,[10],"inconclusive: 3.98 µM [side channel, rising, full curve, poor fit]"
same,Potency,[11],"inconclusive: 75 µM [inhibitor, single point]"
COc1ccc(C[C@@H]2NC[C@H](O)[C@@H]2OC(C)=O)cc1,"activity change, negative = inhibition",[12],active: -118%
same,"activity change, negative = inhibition",[1]; [22],active: -130% [at 17.2 µM]
same,"activity, negative = inhibition",[13],active: -101% [at 17.2 µM]
same,Potency,[14],inactive: > 20.6 µM
same,Potency,[2],inactive
same,Potency,[15],"inconclusive: 1.58 µM [cytotoxic, side channel, partial curve]"
same,Potency,[6],"inconclusive: 3.16 µM [inhibitor, partial curve]"
O=C(O)CNCP(=O)(O)O,"activity change, negative = inhibition",[1]; [22],inconclusive: 1.96% [activator]
same,Potency,[6],inactive
COc1ccc(NC(=O)N2CC[C@@]3(CCCN(C(=O)Oc4ccccc4)C3)C2)cc1,"activity change, negative = inhibition",[1]; [22],inactive: 4.32%
same,"activity change, negative = inhibition",[6],inconclusive: 8.18%
COc1ccc2c(c1O)-c1cccc3c1C(C2)N(C)CC3 (stereo not drawn),"activity change, negative = inhibition",[6],inconclusive: -0.0225%
same,Potency,[16],active: 8.91 µM
same,Potency,[17],active: 14.1 µM
same,Potency,[18],inactive
O=C(/C=C\c1ccc(Cl)cc1)N[C@@]12CCC(=O)[C@@H]3Oc4c(O)ccc5c4[C@@]31CCN(CC1CC1)[C@@H]2C5,Potency,[19],inconclusive: 39.8 µM [decreasing]
same,activation (PDE inhibition),[2],inconclusive: 30%
same,Potency,[6],"inconclusive: 15.8 µM [rising, single point]"
S=C=Nc1cccc(C2(N3CCCCC3)CCCCC2)c1,Potency,[19],inconclusive: 31.6 µM [decreasing]
same,"activity change, negative = inhibition",[1]; [22],inconclusive: -76.4% [inhibitor] [at 38 µM]
same,Potency,[2],inactive
same,Potency,[20],inactive
same,Potency,[15],"inconclusive: 25.1 µM [activator, partial curve]"
same,"activity change, negative = inhibition",[6],inconclusive: 14.3%
same,Potency,[21],"inconclusive: 39.8 µM [inhibitor, partial curve]"
